# The other results are listed elsewhere or left out.
# B1: Gal 7 (Homo sapiens) (protein)
# chain: MSNVPHKSSLPEGIRPGTVLRIRGLVPPNASRFHVNLLCGEEGGSDAALHFNPRLDTSEVVFNSKEGGSWGREERGPGVPFGRGQPFEVLIIASDDGFKAVVGDAQYHHFRHRLPLARVRLVEVGGDVQLDSVRIF
# How the values were obtained:
# Assay in all cases: glycan array binding signal (z-score within array); higher = stronger binding
# Details in all cases: glycan notation: IUPAC condensed, linker removed
# [1] = target: Neu5Ac(a2-3)Gal(b1-4)[Fuc(a1-3)]GlcNAc(b1-3)GalNAc
# Outline: (§1)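 Glycan array data came from 3228 arrays in the Consortium for Functional Glycomics database, and only arrays with an available protein sequence were kept. Glycan names were put into IUPAC-condensed notation, and columns mapping to the same glycan were averaged. The binding signal is a within-array Z-score, averaged across arrays of one protein sequence run at different concentrations or buffers and across linkers. A negative Z-score can be read as non-binding.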
# [2] = target: Neu5Ac(a2-3)Gal(b1-4)[Fuc(a1-3)]GlcNAc(b1-6)[Gal(b1-3)]GalNAc
# Outline: as §1
# [3] = target: Neu5Ac(a2-3)Gal(b1-4)[Fuc(a1-3)]GlcNAc(b1-6)[Neu5Ac(a2-3)Gal(b1-3)]GalNAc
# Outline: as §1
# [4] = target: Neu5Ac(a2-3)Gal(b1-4)[Fuc(a1-3)]GlcNAc6S
# Outline: as §1
# [5] = target: Neu5Ac(a2-3)Gal6S(b1-4)GlcNAc
# Outline: as §1
# [6] = target: Neu5Ac(a2-3)Gal6S(b1-4)[Fuc(a1-3)]GlcNAc
# Outline: as §1
# Neu5Ac(a2-3)GalNAc = target: Neu5Ac(a2-3)GalNAc
# Outline: as §1
# [7] = target: Neu5Ac(a2-3)GalNAc(b1-4)GlcNAc
# Outline: as §1
# [8] = target: Neu5Ac(a2-3)[GalNAc(b1-4)]Gal(b1-4)Glc
# Outline: as §1
# [9] = target: Neu5Ac(a2-3)[GalNAc(b1-4)]Gal(b1-4)GlcNAc
# Outline: as §1
# [10] = target: Neu5Ac(a2-3)[GalNAc(b1-4)]Gal(b1-4)GlcNAc(b1-3)GalNAc
# Outline: as §1
# [11] = target: Neu5Ac(a2-3)[Neu5Ac(a2-6)]GalNAc
# Outline: as §1
# Neu5Ac(a2-6)Gal = target: Neu5Ac(a2-6)Gal
# Outline: as §1
# [12] = target: Neu5Ac(a2-6)Gal(b1-3)GlcNAc(b1-3)[Gal(b1-4)GlcNAc(b1-6)]Gal(b1-4)Glc
# Outline: as §1
# Neu5Ac(a2-6)Gal(b1-4)Glc = target: Neu5Ac(a2-6)Gal(b1-4)Glc
# Outline: as §1
# [13] = target: Neu5Ac(a2-6)Gal(b1-4)GlcNAc
# Outline: as §1
# [14] = target: Neu5Ac(a2-6)Gal(b1-4)GlcNAc(b1-2)Man
# Outline: as §1
# [15] = target: Neu5Ac(a2-6)Gal(b1-4)GlcNAc(b1-2)Man(a1-3)Man(b1-4)GlcNAc(b1-4)GlcNAc
# Outline: as §1
# [16] = target: Neu5Ac(a2-6)Gal(b1-4)GlcNAc(b1-2)Man(a1-3)[Gal(b1-4)GlcNAc(b1-2)Man(a1-6)]Man(b1-4)GlcNAc(b1-4)GlcNAc
# Outline: as §1
# [17] = target: Neu5Ac(a2-6)Gal(b1-4)GlcNAc(b1-2)Man(a1-3)[GlcNAc(b1-2)Man(a1-6)]Man(b1-4)GlcNAc(b1-4)GlcNAc
# Outline: as §1
# [18] = target: Neu5Ac(a2-6)Gal(b1-4)GlcNAc(b1-2)Man(a1-3)[GlcNAc(b1-2)Man(b1-4)GlcNAc(b1-2)Man(a1-6)]Man(b1-4)GlcNAc(b1-4)GlcNAc
# Outline: as §1
# [19] = target: Neu5Ac(a2-6)Gal(b1-4)GlcNAc(b1-2)Man(a1-3)[GlcNAc(b1-4)][Neu5Ac(a2-6)Gal(b1-4)GlcNAc(b1-2)Man(a1-6)]Man(b1-4)GlcNAc(b1-4)GlcNAc
# Outline: as §1
# [20] = target: Neu5Ac(a2-6)Gal(b1-4)GlcNAc(b1-2)Man(a1-3)[Man(a1-6)]Man(b1-4)GlcNAc(b1-4)GlcNAc
# Outline: as §1
# [21] = target: Neu5Ac(a2-6)Gal(b1-4)GlcNAc(b1-2)Man(a1-3)[Neu5Ac(a2-3)Gal(b1-4)GlcNAc(b1-2)Man(a1-6)]Man(b1-4)GlcNAc(b1-4)GlcNAc
# Outline: as §1
# [22] = target: Neu5Ac(a2-6)Gal(b1-4)GlcNAc(b1-2)Man(a1-3)[Neu5Ac(a2-6)Gal(b1-4)GlcNAc(b1-2)Man(a1-6)]Man(b1-4)GlcNAc(b1-4)GlcNAc
# Outline: as §1
# [23] = target: Neu5Ac(a2-6)Gal(b1-4)GlcNAc(b1-2)Man(a1-3)[Neu5Ac(a2-6)Gal(b1-4)GlcNAc(b1-2)Man(a1-6)]Man(b1-4)GlcNAc(b1-4)[Fuc(a1-6)]GlcNAc
# Outline: as §1
# [24] = target: Neu5Ac(a2-6)Gal(b1-4)GlcNAc(b1-2)Man(a1-6)Man(b1-4)GlcNAc(b1-4)GlcNAc
# Outline: as §1
# [25] = target: Neu5Ac(a2-6)Gal(b1-4)GlcNAc(b1-2)Man(a1-6)[Gal(b1-4)GlcNAc(b1-2)Man(a1-3)]Man(b1-4)GlcNAc(b1-4)GlcNAc
# Outline: as §1
binder,measurement,setting,value
B1,glycan array binding signal (z-score),[1],0.74
same,glycan array binding signal (z-score),[2],0.144
same,glycan array binding signal (z-score),[3],-0.059
same,glycan array binding signal (z-score),[4],-0.314
same,glycan array binding signal (z-score),[5],-0.298
same,glycan array binding signal (z-score),[6],-0.314
same,glycan array binding signal (z-score),Neu5Ac(a2-3)GalNAc,-0.307
same,glycan array binding signal (z-score),[7],-0.334
same,glycan array binding signal (z-score),[8],-0.24
same,glycan array binding signal (z-score),[9],-0.248
same,glycan array binding signal (z-score),[10],-0.111
same,glycan array binding signal (z-score),[11],-0.34
same,glycan array binding signal (z-score),Neu5Ac(a2-6)Gal,-0.33
same,glycan array binding signal (z-score),[12],-0.142
same,glycan array binding signal (z-score),Neu5Ac(a2-6)Gal(b1-4)Glc,-0.192
same,glycan array binding signal (z-score),[13],-0.336
same,glycan array binding signal (z-score),[14],-0.26
same,glycan array binding signal (z-score),[15],-0.289
same,glycan array binding signal (z-score),[16],-0.241
same,glycan array binding signal (z-score),[17],-0.371
same,glycan array binding signal (z-score),[18],-0.297
same,glycan array binding signal (z-score),[19],-0.272
same,glycan array binding signal (z-score),[20],-0.277
same,glycan array binding signal (z-score),[21],-0.273
same,glycan array binding signal (z-score),[22],-0.126
same,glycan array binding signal (z-score),[23],0.329
same,glycan array binding signal (z-score),[24],-0.279
same,glycan array binding signal (z-score),[25],-0.301
